Measured values taken from PubChem BioAssay AID588453 (National Center for Advancing Translational Sciences (NCATS), 2011).
The whole screen tested about 390,000 compounds, of which about 4,000 (1%) were called active. Inconclusive means that the source gave no clear call. Such entries were picked first, then a sample of the others. The call rests on the fitted dose curve; in most records, active means well fitted inhibition curve with a large enough effect; inconclusive means small, poorly fitted or top-dose-only effect; inactive means no such curve, though single readings can be large or run the other way. Potencies beside an inconclusive call are fits to weak or partial responses and may not hold up.
Further: nearly all actives have a fitted effect of over 65% in size.
On the % scale 0 is the no-effect control and ±100 the full control effect; potency means the concentration at half of the fitted maximal effect; tags describe the fitted curve by direction and shape.

What follows are molecules tested against Thioredoxin reductase 1, cytoplasmic (Rattus norvegicus) (UniProt O89049) (assay: qHTS Assay for Inhibitors of Mammalian Selenoprotein Thioredoxin Reductase 1 (TrxR1): qHTS). Conditions: recombinant rTrxR1, NADPH fluorescence consumption, selenite substrate; series mostly up to 114 µM.
Chain of UniProt O89049 (O89049 whole entry, looked up): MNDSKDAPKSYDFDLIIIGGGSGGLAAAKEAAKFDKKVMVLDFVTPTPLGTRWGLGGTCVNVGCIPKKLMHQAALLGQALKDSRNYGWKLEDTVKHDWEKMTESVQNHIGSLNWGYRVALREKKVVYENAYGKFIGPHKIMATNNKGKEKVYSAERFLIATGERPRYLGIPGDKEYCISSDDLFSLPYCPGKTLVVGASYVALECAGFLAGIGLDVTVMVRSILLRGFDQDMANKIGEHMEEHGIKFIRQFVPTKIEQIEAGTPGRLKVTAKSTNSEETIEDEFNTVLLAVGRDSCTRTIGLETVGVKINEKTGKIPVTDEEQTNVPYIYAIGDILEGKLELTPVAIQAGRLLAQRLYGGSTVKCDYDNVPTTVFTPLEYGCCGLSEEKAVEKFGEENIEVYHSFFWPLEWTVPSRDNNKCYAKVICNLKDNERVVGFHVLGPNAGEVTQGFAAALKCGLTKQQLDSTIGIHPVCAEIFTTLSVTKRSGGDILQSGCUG
Procedure, shortened: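 Rat TrxR1 (90 nM in the dispensed reagent) was pre-reduced with 400 uM NADPH for 5 min at room temperature, then incubated with compound for 15 min. After 400 uM selenite was added, NADPH fluorescence (Ex 340/Em 450 nm) was followed for 8 min.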
With `O=C(NCCSCc1ccco1)Nc1cc(Cl)cc(Cl)c1` the Potency was inconclusive: 79.4 µM [inhibitor, single point]. In the case of `FC(F)Sc1ccc(NC(=S)NCC2CCCCC2)cc1`, the Potency is reported as “inactive”. With `O=C(NCc1ccccc1Cl)C1CCCN(c2nc3ccccc3n3cccc23)C1` (stereo unspecified) the Potency was “inactive”. With `COc1cccc(-c2nc(CS(=O)(=O)CC(=O)NCc3ccccc3)c(C)o2)c1` the Potency was inconclusive: 15.8 µM [inhibitor, partial curve, poor fit]. `Cc1c(NC(=S)N/N=C/c2ccc([N+](=O)[O-])cc2O)c(=O)n(-c2ccccc2)n1C` was tested, and the Potency was inconclusive: 31.6 µM [inhibitor, partial curve, poor fit]. In the case of `COc1ccc(C2c3[nH]c4ccccc4c3C[C@H]3C(=O)N(C4CCN(Cc5ccccc5)CC4)CC(=O)N23)cc1OC` (stereo partly specified), the Potency is reported as “inactive”. For `O=C1[C@H](Cc2ccccc2)NCCCC[C@@H](c2ccc(Cl)cc2)N1Cc1ccc(Cl)cc1`, the Potency was inconclusive: 50.1 µM [inhibitor, partial curve]. With `CC12CCC(c3n[nH]c(=S)nc31)C2(C)C` (stereo unspecified) the Potency was inconclusive: 3.55 µM [inhibitor, full curve]. For `CCOC(=O)c1cnc(Nc2nc3ccccc3o2)nc1CSc1nnc(C)s1`, the Potency was inconclusive: 28.2 µM [inhibitor, full curve]. For `COc1cccc(/C=C2/C(=O)NN(c3ccc(Br)cc3)C2=O)c1O`, the Potency was inconclusive: 35.5 µM [inhibitor, partial curve]. `O=C(c1ccccc1)C(O)(CN1CCCCC1)c1ccccc1` (stereo unspecified) was tested, and the Potency was inconclusive: 56.2 µM [inhibitor, partial curve, poor fit]. With `O=C(N/N=C/c1cc(Cl)cc([N+](=O)[O-])c1O)c1cccc(S(=O)(=O)N2CCOCC2)c1` the Potency was inconclusive: 56.2 µM [inhibitor, partial curve]. In the case of `COc1cc(CN2CCc3nc(Nc4ccc5c(c4)OCCO5)ncc3C2)cc(OC)c1OC`, the Potency is reported as “inactive”. In the case of `CCOC(=O)c1cc2c(=O)n3ccccc3nc2n(Cc2ccco2)c1=NC(=O)c1cc(C)cc(C)c1`, the Potency is reported as inconclusive: 3.98 µM [inhibitor, full curve, poor fit]. For `CC1CC(=O)Nc2ccc([N+](=O)[O-])cc2N1C` (stereo unspecified), the Potency was inconclusive: 70.8 µM [inhibitor, partial curve]. In the case of `O=C1OC(c2ccc(F)cc2)=C/C1=C\c1ccc(O)cc1`, the Potency is reported as inconclusive: 44.7 µM [inhibitor, partial curve]. With `Cc1ccc2sc(N3CCN(C(=O)C4COc5ccccc5O4)CC3)nc2c1C` (stereo unspecified) the Potency was “inactive”. `Cc1ccc(Cl)cc1N1CCN(C(=O)Cc2csc(Nc3nc(=S)[nH]c4ccccc34)n2)CC1` was tested, and the Potency was “inactive”. With `CCOc1ccccc1N1CC(C(=O)NCCOc2ccccc2OC)CC1=O` (stereo unspecified) the Potency was inconclusive: 89.1 µM [inhibitor, single point]. For `CCOC(=O)C1CCCN(CCC(=O)Nc2ccc(OC)cc2OC)C1` (stereo unspecified), the Potency was “inactive”. In the case of `CCC(=O)NC(=S)Nc1ccc(NC(=O)c2cccc([N+](=O)[O-])c2C)cc1`, the Potency is reported as inconclusive: 8.91 µM [inhibitor, partial curve, poor fit]. For `O=C(Nc1cccc2c1C(=O)NC2=O)c1ccc(S(=O)(=O)N2CCCC2)cc1`, the Potency was inconclusive: 28.2 µM [inhibitor, single point]. In the case of `COC(=O)CSc1nc2ccc(NC(=O)CSc3nnnn3Cc3ccccc3)cc2s1`, the Potency is reported as inconclusive: 50.1 µM [inhibitor, partial curve, poor fit]. With `Cc1cc(C(=O)N/N=C/c2c(C)nn(-c3ccccc3)c2C)n[nH]1` the Potency was “inactive”. In the case of `Cc1cc(C)n2c(SCC(=O)Nc3c(C)n(C)n(-c4ccccc4)c3=O)nnc2n1`, the Potency is reported as inconclusive: 89.1 µM [inhibitor, partial curve, poor fit]. For `O=C(COC(=O)c1ccc(O)cc1)NCCC1=CCCCC1`, the Potency was “inactive”. In the case of `CCCCOc1ccc(C(O)(CCN2CCOCC2)c2ccccc2)cc1` (stereo unspecified), the Potency is reported as active: 39.8 µM. With `CC1=C(C)/C(=N\OS(=O)(=O)c2ccccc2)C=CC1=O` the Potency was inconclusive: 6.31 µM [inhibitor, partial curve, poor fit]. In the case of `O=S(=O)(c1c(F)cccc1F)N1CCN(Cc2c(O)ccc3ccccc23)CC1`, the Potency is reported as inconclusive: 3.98 µM [inhibitor, full curve]. For `O=C(CCl)Nc1ccccc1C(=O)Nc1ccc2c(c1)OCO2`, the Potency was inconclusive: 50.1 µM [inhibitor, partial curve]. `CN(C)c1ccc(/C=N\Nc2ccc([N+](=O)[O-])cc2[N+](=O)[O-])cc1Cl` was tested, and the activity change, negative = inhibition was inactive: 26.5% [at 0.0914 µM]. For `N#Cc1c(-c2ccco2)nc(SCC(=O)Nc2cccc(Cl)c2)[nH]c1=O`, the Potency was active: 14.1 µM. For `Cc1n[nH]c(=O)c2c(NC(=O)CSc3nncn3C(C)C)oc(C)c12`, the Potency was inconclusive: 79.4 µM [inhibitor, single point]. `COc1ccc(-c2nc(S(=O)(=O)c3ccccc3)c(N3CCOCC3)o2)cc1` was tested, and the Potency was active: 39.8 µM. For `O=C(CNC(=O)Cc1ccccc1)N=Nc1c(O)[nH]c2ccccc12`, the Potency was inconclusive: 10 µM [inhibitor, partial curve, poor fit]. `O=C(O)CCc1ccc(-c2cccs2)n1CC1CCCO1` (stereo unspecified) was tested, and the Potency was inconclusive: 50.1 µM [inhibitor, partial curve]. For `CS(=O)(=O)c1nc(S(=O)(=O)c2ccc(Cl)cc2)c(NCCN2CCOCC2)s1`, the Potency was inconclusive: 89.1 µM [inhibitor, single point]. In the case of `Nc1nnc(SCC(=O)OCC(=O)c2ccccc2Br)s1`, the Potency is reported as inconclusive: 0.398 µM [inhibitor, partial curve, poor fit]. In the case of `COc1ccc(C2C(C#N)=C(N)Oc3cc(C)[nH]c(=O)c32)c(OC)c1OC` (stereo unspecified), the Potency is reported as inconclusive: 89.1 µM [inhibitor, single point]. With `CN1CCN(C(=O)c2sc(=S)n(-c3ccccc3)c2N)CC1` the Potency was “inactive”. `COc1cc(/C=C2/C(=N)N3C(=NC2=O)SN=C3S(C)(=O)=O)ccc1OS(=O)(=O)c1ccc(C)cc1` was tested, and the Potency was “inactive”. For `CC(=O)N(C)c1ccc(/C=C2\C=Cc3ccccc32)cc1`, the Potency was inconclusive: 56.2 µM [inhibitor, partial curve, poor fit]. `O=c1oc2cc(O)ccc2cc1S(=O)(=O)c1ccccc1` was tested, and the Potency was inconclusive: 50.1 µM [inhibitor, partial curve, poor fit]. For `Cc1ccc2nc(N3C(=O)C(O)=C(C(=O)c4cc5ccccc5o4)C3c3cccs3)sc2c1` (stereo unspecified), the Potency was inconclusive: 70.8 µM [inhibitor, single point]. For `O=C(O)CC1=C(Nc2ccccc2)C(=O)N(c2ccccc2)C1c1ccc(Cl)cc1` (stereo unspecified), the Potency was inconclusive: 44.7 µM [inhibitor, partial curve]. `O=C(O)C1C(c2ccccc2)C(C(=O)OCc2ccco2)C1c1ccccc1` (stereo unspecified) was tested, and the Potency was inconclusive: 50.1 µM [inhibitor, partial curve]. In the case of `CN(C)CCCN1C(=O)c2cccc3c([N+](=O)[O-])ccc(c23)C1=O`, the Potency is reported as inconclusive: 44.7 µM [inhibitor, partial curve, poor fit]. For `Cc1cccc(C)c1NC(=O)CSc1nnc(NC(=O)CN2CCOCC2)s1`, the Potency was inconclusive: 15.8 µM [inhibitor, partial curve, poor fit]. In the case of `O=C(O)c1ccccc1SC1CC(=O)N(c2ccccc2)C1=O` (stereo unspecified), the Potency is reported as inconclusive: 79.4 µM [inhibitor, partial curve, poor fit]. With `Cc1cc(=O)oc2cc(OC(=O)c3nn(C(C)C)c(=O)c4ccccc34)ccc12` the Potency was active: 25.1 µM. In the case of `c1ccc(CSc2ccc(-c3ccco3)nn2)cc1`, the Potency is reported as “inactive”. With `O=C(Nc1ccccc1-c1ccccc1)c1ccc(Cl)c([N+](=O)[O-])c1` the Potency was inconclusive: 89.1 µM [inhibitor, single point]. `O=C1CC(NS(=O)(=O)c2ccc([N+](=O)[O-])cc2)CN1c1ccc2c(c1)OCCO2` (stereo unspecified) was tested, and the Potency was “inactive”. For `COc1cccc(C(=O)NC2C(=O)N3C(C(=O)O)=C(COC(C)=O)CSC23)c1` (stereo unspecified), the Potency was inconclusive: 35.5 µM [inhibitor, partial curve, poor fit]. `CCN(CC)S(=O)(=O)c1ccc(C)c(N=C=S)c1` was tested, and the Potency was inconclusive: 39.8 µM [inhibitor, single point]. For `COc1ccc(C2C=C(c3ccc(Br)cc3)Nc3nc(N4C(=O)CCC4=O)nn32)cc1` (stereo unspecified), the Potency was inconclusive: 50.1 µM [inhibitor, partial curve, poor fit]. With `CSc1cccc(Nc2cc(C(=O)NCCCN(Cc3ccccc3)C(C)C)c3ccccc3n2)c1` the Potency was “inactive”. In the case of `Cc1c(C(=O)OC/C(O)=C(\C#N)c2nc3ccccc3[nH]2)oc2ccccc12`, the Potency is reported as “inactive”. For `COc1ccc(Oc2nnc(-c3ccc(C)cc3)c3ccccc23)cc1`, the Potency was “inactive”. `COc1ccccc1/C=C/C(=O)N1CCCC1` was tested, and the Potency was inconclusive: 79.4 µM [inhibitor, single point]. For `Nc1sccc1C(=O)c1ccccc1`, the Potency was inconclusive: 11.2 µM [inhibitor, full curve]. `Cc1ccc(NC(=O)CSc2ccc(C(N)=O)cc2[N+](=O)[O-])cc1` was tested, and the Potency was “inactive”. For `CC1(C)Cc2nc3oc4c(=S)nc[nH]c4c3cc2CO1`, the Potency was active: 11.2 µM. With `COc1cc(CN2c3ccc(Br)cc3C(=O)CS2(=O)=O)cc(OC)c1` the Potency was inconclusive: 79.4 µM [inhibitor, single point]. With `Cc1ccc(S(=O)(=O)/C(=C/Cl)NC(=O)c2ccccc2)cc1` the Potency was inconclusive: 70.8 µM [inhibitor, partial curve, poor fit]. In the case of `COC(=O)C1=C(C)NC(=O)/C1=C\c1ccco1`, the Potency is reported as inconclusive: 44.7 µM [inhibitor, partial curve].
